Source: the supplement of paper PMC11417369
± gives the standard deviation of the averaged measurements. This is one part of the list.

Each sequence was assayed on PfAP2-I AP2 domain 3 (GST-tagged) (assay: gcPBM binding intensity (ln(normalized median fluorescence intensity)); higher = stronger DNA binding).
How it was run: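 Plasmodium falciparum DNA-binding domains carrying a GST tag were expressed in E. coli and applied for 1 h, at about 25 μg on average, to an Agilent 4 × 180k array. The array held primer-extended double-stranded 36-bp intergenic genomic probes together with negative controls, and binding took place in 1× PBS with 1% milk, 0.2 mg/ml BSA, 0.5% salmon testes DNA and 0.03% Triton X-100. An Alexa488 anti-GST antibody detected bound protein, and the array was scanned at 488 nm. Binding intensity is taken as the highest Masliner-normalised natural-log median intensity across replicate spots of either probe orientation.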

Row | Sequence | gcPBM binding intensity (ln)
1 | TTTTTTTGCCATATTACACACACACGGGTAAACCCC [CACACA_site6874] | 8.12 ± 0.61
2 | TAAATTTTTATTTGTAGTACTATATATATATATATA [XGTACX_site1026] | 9.41 ± 0.36
3 | TTTAATATAACTATTTGTACATAAAGAATATAAATA [XGTACX_site4594] | 7.65 ± 0.38
4 | TAATGAAAATATATAACACACAAAAGTTATAAATAT [CACACA_site1189] | 7.79 ± 0.67
5 | GTGTTGAATTATGTGCTTTTTTCTTTCTACTCAGTA [XGTACX_negctrl_site464] | 8.59 ± 0.55
6 | AAGAGAAAAAGAATGAAAGAAAAAAAAAAAAAATAT [CACACA_negctrl_site1527] | 7.76 ± 0.73
7 | CCCACAGACAAAAACACACACAAAGGTGTTCTTATA [CACACA_site4840] | 7.52 ± 0.67
8 | TTTTTAAAGGTGATAAAACACACGATTTAGAAATGT [CACACA_site3160] | 8.04 ± 0.77
9 | CTACATAAAAAAATATGTACATATATATATATATAT [XGTACX_site667] | 9.36 ± 0.43
10 | TTATCGACCAATAAAGCATGCAAAAAAAAAAAAAAA [TGCATGCA_site788] | 8.15 ± 0.67
11 | TCGTGCATAAATCATACACACACACCGATATATATA [CACACA_site8767] | 11.3 ± 0.67
12 | TCACAATTTTTTAGTACACACATATAAATATATAAA [CACACA_site1537] | 8.185 ± 0.035
13 | TTTGTATCCTTTTTGACATGCAACCATTCGGGTACA [TGCATGCA_site506] | 7.75 ± 0.77
14 | AAAAAAAAAAAAAACGCACACATTTTTACAATTCTA [CACACA_site3271] | 9.03 ± 0.57
15 | TCTATTAATTAATATACACACATTATGTATATATAT [CACACA_site2541] | 8.07 ± 0.88
16 | TTTCATTAATCTAATAGTACAGAAAATTGAGAAAAA [XGTACX_site8395] | 8.11 ± 0.53
17 | GTATACAAACATATAAATATAAATGTATTATTTGTT [CACACA_negctrl_site756] | 7.36 ± 0.42
18 | ACTTTAACCTGAACGGTGCATAAAATTTTGGCATTA | 10.9 ± 0.35
19 | AAAGATAAAAAAAGTACACACACACCGATATATATA [CACACA_site9006] | 8.39 ± 0.7
20 | CACGAACACAAACACAAACACACATCATATATATAT [CACACA_site1322] | 9.25 ± 0.16
21 | AATATATATAAAAAGGGAAAAATATATAAATAGATA [XGTACX_negctrl_site52] | 7.52 ± 0.55
22 | AAAAAATTGACTAATGCACACAATTACAGATATATA [CACACA_site5010] | 10.3 ± 0.4
23 | ATAAAATATATGAAGACACACATAACATCATATTTT [CACACA_site3144] | 7.51 ± 0.68

Row | Sequence | gcPBM binding intensity (ln)
24 | CATAATATGACATACACACACAAAAAAAAAAAAATA [CACACA_site1285] | 7.51 ± 0.45
25 | AACCGGGCCTAAGATGTAATGCCTTAGCCTATAAAA [CACACA_negctrl_site479] | 7.45 ± 0.81
26 | TTTATATTAAAATATTGTACGGACATTATTTTGTAA [XGTACX_site8128] | 7.545 ± 0.064
27 | TAAACATAATATTTAACACACATGAAGATGTATATT [CACACA_site1036] | 7.45 ± 0.44
28 | ATAAATATTTACAAAAGTACACATAACTTTAGATAT [XGTACX_site1685] | 7.75 ± 0.5
29 | ACAATCCACAGGGGCGCACACATATAAGCAGTATAT [CACACA_site3817] | 8.46 ± 0.4
30 | GTTTTGGCTAACTATTCACACATTAAAATATTACCA [CACACA_site5016] | 7.99 ± 0.77
31 | CACCATGATACATACACACAGACATATACGCATTCA [CACACA_site1008] | 7.93 ± 0.6
32 | TTTGTTGTTTGGAGATGTACATATTTTACACTTTTT [XGTACX_site5965] | 8.06 ± 0.44
33 | AAAAAATTAATAAAAACACACAAAAAAAATAAACAA [CACACA_site1907] | 7.75 ± 0.77
34 | ATTTCACAGAGACACACACACAATATATTTCCTTTT [CACACA_site7773] | 8.02 ± 0.64
35 | TTTTATCAAATATTTATTTTATACATAAATATTTAT [XGTACX_negctrl_site528] | 7.76 ± 0.45
36 | ATTTTGTGTAGTGATGCATGTTATATATATATTTGA [TGCATGCA_site422] | 8.06 ± 0.63
37 | AGAAACATATGGTAGTGTACTGTAAATTTATTCTTT [XGTACX_site8602] | 7.82 ± 0.59
38 | ATAACATCAGTATTATGTACATATGTAGGTAAATAA [XGTACX_site7066] | 8.05 ± 0.53
39 | CGTTATTATACACATACACACAGGAATAAAAAATTA [CACACA_site7373] | 8.1 ± 0.38
40 | TTTTATTGTTTTTTTTTTTTTTCTTTTTTTTTTTTT [CACACA_negctrl_site1094] | 7.91 ± 0.46
41 | TACATATTTTGTATATATTATTTATTTTATTAGTTT [XGTACX_negctrl_site85] | 7.41 ± 0.2
42 | TTCTGACTTGTTATAATTTGTATATCCGAAAAAATT [TGCATGCA_negctrl_site456] | 7.84 ± 0.45
43 | ACTATTATTAAAAATTGTACTTTCTATAAATTTTTT [XGTACX_site7825] | 7.79 ± 0.69
44 | GATCTATACATGGGGACACACATCACTCTATATTTT [CACACA_site3408] | 8.16 ± 0.63
45 | ATTTGTTATATATTCTTTTATGTTAATAATTCGAAT [CACACA_negctrl_site378] | 7.68 ± 0.54
